From the supplement of paper PMC4967469
Lines with a small IC50 respond at low doses; a fit beyond the top or the lowest dose is shown as a bound at that dose. For AUC the same curve is integrated over the 256-fold range of doses and scaled to a fraction; the more sensitive the line, the further below 1. For some assays here: A top dose marked as inferred is not printed in the source and was worked back from the curve model. For some assays here: An entry number marks a drug with two screens in the source, which often give different values.

Assays:
Experiment in all cases: Viability of human cancer cell lines after 72 h of drug (GDSC screen)
JNK Inhibitor VIII = compound: CCOc1nc(NC(=O)Cc2cc(OC)ccc2OC)cc(N)c1C#N [JNK Inhibitor VIII]; conditions: top dose 10 µM; top dose inferred
Protocol: (§1)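 Human cancer cell lines in 384-well plates, medium with 10% serum, drug for 72 h over a 256-fold dose range (nine 2-fold or five 4-fold steps up to the top dose). Adherent lines were fixed and stained with the nucleic acid dye Syto60, suspension lines read with resazurin; signal relative to control wells, capped at 0 and 100%. One two-parameter sigmoid per drug and line, fitted in a mixed model over all curves with the slope shared within a line.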

CGP-60474 = compound: OCCCNc1cc(-c2ccnc(Nc3cccc(Cl)c3)n2)ccn1 [CGP-60474]; conditions: top dose 0.256 µM; top dose inferred
Protocol: as §1

SB-715992 = compound: Cc1ccc(C(=O)N(CCCN)[C@@H](c2nc3cc(Cl)ccc3c(=O)n2Cc2ccccc2)C(C)C)cc1 [SB-715992]; conditions: top dose 0.128 µM; top dose inferred
Protocol: as §1

JNJ-26854165 = compound: c1ccc2c(CCNc3ccc(Nc4ccncc4)cc3)c[nH]c2c1 [JNJ-26854165]; conditions: top dose 10 µM
Protocol: as §1

Cyclopamine = compound: CC1=C2C[C@H]3[C@@H](CC=C4C[C@@H](O)CC[C@@]43C)[C@@H]2CC[C@]12O[C@@H]1C[C@H](C)CN[C@H]1[C@H]2C [Cyclopamine]; conditions: top dose 16 µM; top dose inferred
Protocol: as §1

Docetaxel = compound: CC(=O)O[C@@]12CO[C@@H]1C[C@H](O)[C@@]1(C)C(=O)[C@H](O)C3=C(C)[C@@H](OC(=O)[C@H](O)[C@@H](NC(=O)OC(C)(C)C)c4ccccc4)C[C@@](O)([C@@H](OC(=O)c4ccccc4)[C@H]21)C3(C)C [Docetaxel]; conditions: top dose 0.0125 µM
Protocol: as §1

AMG-706 = compound: CC1(C)CNc2cc(NC(=O)c3cccnc3NCc3ccncc3)ccc21 [AMG-706]; conditions: top dose 2 µM; top dose inferred
Protocol: as §1

Belinostat = compound: O=C(/C=C/c1cccc(S(=O)(=O)Nc2ccccc2)c1)NO [Belinostat]; conditions: top dose 20 µM; top dose inferred
Protocol: as §1

NSC-207895 = compound: CN1CCN(c2ccc([N+](=O)[O-])c3no[n+]([O-])c23)CC1 [NSC-207895]; conditions: top dose 20 µM; top dose inferred
Protocol: as §1

FTI-277 = compound: COC(=O)[C@H](CCSC)NC(=O)c1ccc(NC[C@@H](N)CS)cc1-c1ccccc1 [FTI-277]; conditions: top dose 1.024 µM; top dose inferred
Protocol: as §1

YM155 = compound: COCC[n+]1c2c(n(Cc3cnccn3)c1C)C(=O)c1ccccc1C2=O [YM155]; conditions: top dose 5.12 µM
Protocol: as §1

OSI-906 = compound: C[C@]1(O)C[C@@H](c2nc(-c3ccc4ccc(-c5ccccc5)nc4c3)c3c(N)nccn32)C1 [OSI-906]; conditions: top dose 2.56 µM; top dose inferred
Protocol: as §1

JQ1 = compound: Cc1sc2c(c1C)C(c1ccc(Cl)cc1)=N[C@@H](CC(=O)OC(C)(C)C)c1nnc(C)n1-2 [JQ1]
Protocol: as §1

[1] = top dose 2.56 µM, screen: GDSC drug entry 163
[2] = top dose 1 µM, screen: GDSC drug entry 1218, top dose inferred

Cell Line: ME-1 (acute myeloid leukaemia, suspension)
- AUC (JNK Inhibitor VIII): 0.984
- IC50 (JNK Inhibitor VIII): > 10 µM
- AUC (CGP-60474): 0.935
- IC50 (CGP-60474): > 0.256 µM
- AUC (SB-715992): 0.928
- IC50 (SB-715992): > 0.128 µM
- AUC (JNJ-26854165): 0.985
- IC50 (JNJ-26854165): > 10 µM
- AUC (Cyclopamine): 0.989
- IC50 (Cyclopamine): > 16 µM
- AUC (Docetaxel): 0.981
- IC50 (Docetaxel): > 0.0125 µM
- AUC (AMG-706): 0.982
- IC50 (AMG-706): > 2 µM
- AUC (Belinostat): 0.374
- IC50 (Belinostat): 0.545 µM
- AUC (NSC-207895): 0.923
- IC50 (NSC-207895): > 20 µM
- AUC (FTI-277): 0.982
- IC50 (FTI-277): > 1.02 µM
- AUC (YM155): 0.481
- IC50 (YM155): 0.283 µM
- AUC (OSI-906): 0.977
- IC50 (OSI-906): > 2.56 µM

Cell Line: MHH-NB-11 (neuroblastoma, adherent)
- AUC (JNK Inhibitor VIII): 0.975
- IC50 (JNK Inhibitor VIII): > 10 µM
- AUC (CGP-60474): 0.818
- IC50 (CGP-60474): 0.163 µM
- AUC (SB-715992): 0.742
- IC50 (SB-715992): 0.0426 µM
- AUC (JQ1; [1]): 0.906
- IC50 (JQ1; [1]): > 2.56 µM
- AUC (Cyclopamine): 0.983
- IC50 (Cyclopamine): > 16 µM
- AUC (Docetaxel): 0.926
- IC50 (Docetaxel): > 0.0125 µM
- AUC (AMG-706): 0.983
- IC50 (AMG-706): > 2 µM
- AUC (Belinostat): 0.212
- IC50 (Belinostat): 0.161 µM
- AUC (NSC-207895): 0.969
- IC50 (NSC-207895): > 20 µM
- AUC (FTI-277): 0.98
- IC50 (FTI-277): > 1.02 µM
- AUC (YM155): 0.705
- IC50 (YM155): 1.29 µM
- AUC (OSI-906): 0.945
- IC50 (OSI-906): > 2.56 µM

Cell Line: MOLT-4 (lymphoblastic leukaemia, suspension)
- AUC (JNK Inhibitor VIII): 0.983
- IC50 (JNK Inhibitor VIII): > 10 µM
- AUC (CGP-60474): 0.72
- IC50 (CGP-60474): 0.0583 µM
- AUC (SB-715992): 0.681
- IC50 (SB-715992): 0.023 µM
- AUC (JNJ-26854165): 0.958
- IC50 (JNJ-26854165): > 10 µM
- AUC (Cyclopamine): 0.992
- IC50 (Cyclopamine): > 16 µM
- AUC (Docetaxel): 0.858
- IC50 (Docetaxel): 0.00739 µM
- AUC (AMG-706): 0.987
- IC50 (AMG-706): > 2 µM
- AUC (Belinostat): 0.14
- IC50 (Belinostat): 0.131 µM
- AUC (NSC-207895): 0.944
- IC50 (NSC-207895): > 20 µM
- AUC (FTI-277): 0.983
- IC50 (FTI-277): > 1.02 µM
- AUC (YM155): 0.015
- IC50 (YM155): < 0.02 µM
- AUC (OSI-906): 0.97
- IC50 (OSI-906): > 2.56 µM

Cell Line: NAMALWA (Burkitt lymphoma, suspension)
- AUC (JNK Inhibitor VIII): 0.991
- IC50 (JNK Inhibitor VIII): > 10 µM
- AUC (CGP-60474): 0.633
- IC50 (CGP-60474): 0.0349 µM
- AUC (SB-715992): 0.6
- IC50 (SB-715992): 0.0143 µM
- AUC (JNJ-26854165): 0.953
- IC50 (JNJ-26854165): > 10 µM
- AUC (Cyclopamine): 0.939
- IC50 (Cyclopamine): > 16 µM
- AUC (Docetaxel): 0.894
- IC50 (Docetaxel): 0.0108 µM
- AUC (AMG-706): 0.991
- IC50 (AMG-706): > 2 µM
- AUC (Belinostat): 0.076
- IC50 (Belinostat): < 0.0781 µM
- AUC (NSC-207895): 0.868
- IC50 (NSC-207895): 13.6 µM
- AUC (FTI-277): 0.989
- IC50 (FTI-277): > 1.02 µM
- AUC (YM155): 0.016
- IC50 (YM155): < 0.02 µM
- AUC (OSI-906): 0.991
- IC50 (OSI-906): > 2.56 µM

Cell Line: NB6 (neuroblastoma, adherent)
- AUC (JNK Inhibitor VIII): 0.984
- IC50 (JNK Inhibitor VIII): > 10 µM
- AUC (CGP-60474): 0.897
- IC50 (CGP-60474): > 0.256 µM
- AUC (SB-715992): 0.794
- IC50 (SB-715992): 0.0746 µM
- AUC (JQ1; [2]): 0.98
- IC50 (JQ1; [2]): > 1 µM
- AUC (JQ1; [1]): 0.8
- IC50 (JQ1; [1]): 1.58 µM
- AUC (JNJ-26854165): 0.958
- IC50 (JNJ-26854165): > 10 µM
- AUC (Cyclopamine): 0.983
- IC50 (Cyclopamine): > 16 µM
- AUC (Docetaxel): 0.931
- IC50 (Docetaxel): > 0.0125 µM
- AUC (AMG-706): 0.98
- IC50 (AMG-706): > 2 µM
- AUC (NSC-207895): 0.848
- IC50 (NSC-207895): > 20 µM
- AUC (FTI-277): 0.96
- IC50 (FTI-277): > 1.02 µM
- AUC (YM155): 0.072
- IC50 (YM155): < 0.02 µM
- AUC (OSI-906): 0.913
- IC50 (OSI-906): > 2.56 µM
